{"source": "PubChem BioAssay AID2675", "about": "(National Center for Advancing Translational Sciences (NCATS), 2010)", "note": "Out of some 280,000 compounds screened, about 100 (0.036%) were called active. The shares of active, inactive and inconclusive entries below differ from those in the screen. Calls come from the whole dose curve; as a rule, active = well fitted inhibition curve with a large enough effect in the signal ratio, with a control signal flat (not every such curve was filed as active); inconclusive = small, poorly fitted or top-dose-only effect, or effect the other way, or a change in a side signal; inactive = no such curve, though single readings can be large or run the other way; the % refers to the signal ratio. Potencies of inconclusive entries are doubtful fits and often do not repeat. A note “side channel” means that the fit belongs to a control or component signal, not to the main read-out. % is set by controls: 0 for no effect and ±100 for the full control effect; potency is the fitted concentration of half-maximal effect; tags give direction and shape of the fitted curve or compound fluorescence and quenching.", "data": [{"molecular_target": "Muscleblind-like protein 1 (Homo sapiens) (UniProt Q9NR56)", "sequence (Q9NR56 whole entry, looked up)": "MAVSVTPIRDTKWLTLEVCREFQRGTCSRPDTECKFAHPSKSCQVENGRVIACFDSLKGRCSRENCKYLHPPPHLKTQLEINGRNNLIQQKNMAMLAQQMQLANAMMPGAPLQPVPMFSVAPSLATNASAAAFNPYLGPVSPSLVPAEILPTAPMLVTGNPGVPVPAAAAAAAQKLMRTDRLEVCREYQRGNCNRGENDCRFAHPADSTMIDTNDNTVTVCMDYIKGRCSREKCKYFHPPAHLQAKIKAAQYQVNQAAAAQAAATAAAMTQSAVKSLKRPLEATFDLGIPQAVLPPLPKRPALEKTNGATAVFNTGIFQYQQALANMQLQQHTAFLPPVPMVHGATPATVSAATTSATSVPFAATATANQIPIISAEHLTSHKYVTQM", "assay": "qHTS Assay for Inhibitors of MBNL1-poly(CUG) RNA binding", "details": "TR-FRET MBNL1-His/biotin-(CUG)12 binding, 665/545 ratio; activity change, negative = inhibition: at 57.5 µM (top of the series)", "summary_of_the_method": "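TR-FRET readout: Ex 340 nm, 665/545 nm emission ratio, normalized to buffer-only (basal) and MBNL1-(CUG)12 controls. Complex of MBNL1-His with Biotin-(CUG)12, compounds 92 nM–58 uM, incubated 60 min at room temperature.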", "values": [{"compound": "CCOc1cc(S(=O)(=O)N2CCN(Cc3ccccc3)CC2)ccc1Br", "activity change, negative = inhibition": "inactive: 1.32%"}, {"compound": "CCn1c(NCc2cc(Br)ccc2NS(=O)(=O)c2ccc(C)cc2)nc2ccccc21", "activity change, negative = inhibition": "inactive: -11.9%"}, {"compound": "Cc1ccc(C)c2[nH]c(=O)c(CCNC(=O)C(C)(C)C)cc12", "Potency": "inconclusive: 0.708 µM [fluorescent, side channel, full curve]"}, {"compound": "COc1cccc(/C(O)=C2/C(=O)C(=O)N(c3cc(C)on3)C2c2cccs2)c1", "note": "(stereo unspecified)", "Potency": "inconclusive: 31.6 µM [quencher, side channel, single point]"}, {"compound": "COc1ccccc1N1CCN(C(=O)c2ccc3c(=O)n(Cc4ccco4)c(=S)[nH]c3c2)CC1", "activity change, negative = inhibition": "inactive: -6.33%"}, {"compound": "COc1ccc(C(=O)N/N=C/C(=O)c2ccccc2)cc1", "Potency": "inconclusive: 22.4 µM [quencher, side channel, partial curve]"}, {"compound": "COc1ccc(NC2=C(Cl)C(=O)N(CCc3ccccc3)C2=O)cc1", "activity change, negative = inhibition": "inactive: 13.2%"}, {"compound": "CCOc1ccc(Cn2nnc(C(=O)Nc3ccc(OC)cc3OC)c2N)cc1", "Potency": "inconclusive: 0.126 µM [quencher, side channel, full curve, poor fit]"}, {"compound": "CC(C)CN(Cc1c(O)ccc2c(=O)c(-c3ccccc3)coc12)CC(C)C", "activity change, negative = inhibition": "inactive: 0.152%"}, {"compound": "CS(=O)(=O)Oc1ccc2c(c1)O/C(=C\\C=C\\c1ccccc1)C2=O", "Potency": "inconclusive: 10 µM [quencher, side channel, partial curve]"}, {"compound": "O=C(COc1ccc([N+](=O)[O-])cc1Cl)NCCc1ccccc1", "Potency": "inconclusive: 39.8 µM [quencher, single point]"}, {"compound": "Cc1cc(C)nc(N(C#N)CN2C(=O)c3ccccc3S2(=O)=O)n1", "activity change, negative = inhibition": "inactive: -4.13%"}, {"compound": "CCN(CC)CCCNC(=O)CNC(=O)c1nn(-c2ccc(OC)cc2)c(=O)c2ccccc12", "Potency": "inconclusive: 25.1 µM [quencher, side channel, single point]"}, {"compound": "C/C(=N\\N1CCN(Cc2ccccc2Cl)CC1)c1ccc([N+](=O)[O-])cc1", "Potency": "inconclusive: 12.6 µM [quencher, side channel, partial curve]"}, {"compound": "S=c1[nH]nc(CN2CCCCC2)n1Cc1ccccc1", "activity change, negative = inhibition": "inactive: -2.94%"}, {"compound": "COc1cccc(NC(=O)c2sc3nc(N4CCOCC4)c4c(c3c2N)CCCC4)c1", "activity change, negative = inhibition": "inactive: 6.95%"}, {"compound": "COCc1c(C(=O)N/N=C\\c2cccnc2)nnn1-c1nonc1N", "Potency": "inconclusive: 28.2 µM [quencher, single point]"}, {"compound": "COc1ccc(CN2CCCC(C(=O)c3ccc4c(c3)OCO4)C2)c(F)c1", "note": "(stereo unspecified)", "Potency": "inconclusive: 126 µM [inhibitor, partial curve]"}, {"compound": "O=C(Nc1ccccc1)C1CCN(C(=O)c2ccc([N+](=O)[O-])cc2)CC1", "Potency": "inconclusive: 15.8 µM [quencher, partial curve]"}, {"compound": "N#Cc1c(-c2cccs2)nc(SCc2ccc(Cl)cc2)[nH]c1=O", "Potency": "inconclusive: 14.1 µM [fluorescent, side channel, partial curve]"}, {"compound": "C=CCc1cc(OC)ccc1OCC(O)CN1CCN(c2ccc(OC)cc2)CC1", "note": "(stereo unspecified)", "Potency": "inactive"}, {"compound": "CCOC(=O)Cc1nnc(NC(=O)CSc2nnc3c(n2)[nH]c2ccccc23)s1", "Potency": "inconclusive: 17.8 µM [quencher, side channel, single point]"}, {"compound": "COc1ccc(C2/C(=C(\\O)c3ccc4c(c3)CC(C)O4)C(=O)C(=O)N2Cc2cccnc2)c(OC)c1", "note": "(stereo unspecified)", "Potency": "inconclusive: 17.8 µM [quencher, side channel, partial curve]"}, {"compound": "O=C(N/N=C/c1ccccn1)c1ccc(Br)o1", "activity change, negative = inhibition": "inactive: 6.87%"}, {"compound": "C/C=N/NC(=O)c1cc(Br)ccc1O", "activity change, negative = inhibition": "inactive: -5.67%"}, {"compound": "Cc1ccc(NC(=S)NNC(=O)CSc2nnc(-c3ccc(Cl)cc3)n2C2CCCCC2)cc1", "activity change, negative = inhibition": "inactive: -5.75%"}, {"compound": "COc1cccc(/C=C2\\SC(=O)N(CCC(=O)N3CCCCC3CCO)C2=O)c1", "note": "(stereo unspecified)", "Potency": "inconclusive: 17.8 µM [quencher, side channel, partial curve]"}, {"compound": "COc1ccc(/C=N/NC(=O)c2cc(O)c(O)c(O)c2)cc1Cn1cc([N+](=O)[O-])cn1", "Potency": "inconclusive: 20 µM [quencher, side channel, partial curve]"}, {"compound": "CN(c1ccc([N+](=O)[O-])cc1C(N)=O)C1CCCCC1", "Potency": "inconclusive: 14.1 µM [quencher, partial curve]"}, {"compound": "O=C(NCCCN1CCOCC1)c1cc(-c2ccc3c(c2)OCO3)nc2ccccc12", "Potency": "inconclusive: 35.5 µM [quencher, side channel, single point]"}, {"compound": "CNC(=O)c1cc(Cl)c(OC)c(OC)c1", "Potency": "inconclusive: 14.1 µM [fluorescent, side channel, partial curve]"}, {"compound": "COc1ccc(-c2ccc(C(c3c(C)[nH][nH]c3=O)c3c(C)[nH][nH]c3=O)o2)c([N+](=O)[O-])c1", "Potency": "inconclusive: 22.4 µM [quencher, side channel, partial curve]"}, {"compound": "COC(=O)c1ccc(C2/C(=C(/O)c3ccc(OC)cc3)C(=O)C(=O)N2c2cc(C)on2)cc1", "note": "(stereo unspecified)", "Potency": "inconclusive: 35.5 µM [quencher, side channel, single point]"}, {"compound": "CNc1c([N+](=O)[O-])cnn1-c1ccccn1", "Potency": "inconclusive: 28.2 µM [quencher, side channel, single point]"}, {"compound": "O=C(CCc1ccccc1)NNC(=O)COc1ccc([N+](=O)[O-])cc1", "Potency": "inconclusive: 31.6 µM [quencher, side channel, single point]"}, {"compound": "Cc1ccc(/C=N/N2CCN(c3ccccn3)CC2)o1", "Potency": "inconclusive: 39.8 µM [quencher, side channel, single point]"}, {"compound": "Cc1nn(-c2ccccc2)c(C)c1NC(=O)COc1ccc2ccccc2c1", "activity change, negative = inhibition": "inactive: -2.69%"}, {"compound": "O=C(O)CN(c1ccccn1)S(=O)(=O)c1ccc(Cl)cc1", "activity change, negative = inhibition": "inactive: -3.87%"}, {"compound": "O=C(O)CCC(=O)Nc1ccc(N2CCCCC2)c(C(=O)O)c1", "Potency": "inconclusive: 39.8 µM [inhibitor, single point]"}, {"compound": "CC(=O)c1ccc(-n2c(SCC(=O)c3c[nH]c4ccccc34)nc3ccccc3c2=O)cc1", "Potency": "inconclusive: 35.5 µM [activator, single point]"}, {"compound": "COc1cccc(NC(=O)CN(C)CC(=O)Nc2ccc(Cl)cc2[N+](=O)[O-])c1", "Potency": "inconclusive: 31.6 µM [quencher, side channel, partial curve]"}]}]}
